# Data published in PubChem BioAssay (Tox21).
# Where “and” joins values, the source holds several entries; their conditions need not be identical. Identical values can stand only once. This list was built around the results that the source calls inconclusive (neither active nor inactive); the mix of calls is not that of the screen. For some assays here: Where the call is inconclusive, the potency comes from a doubtful curve fit. Calls of active or inactive are those of the source. Unless noted, calls follow the shape of the dose curve; as a rule, active = well fitted curve in the direction sought with a large enough effect in the repeat runs; inconclusive = weak or mixed curves; inactive = no such curve, though single readings can be large; an effect the other way counts as inactive or inconclusive.
# Columns and labels:
# [1] = qHTS assay for identifying genotoxic compounds that show differential cytotoxicity against isogenic chicken DT40 cell lines with known DNA damage response pathways - wild type cell line (AID 743012); details: DT40 wild type chicken cells viability, CellTiter-Glo, 40 h; activity change, negative = cytotoxicity: at 68.4 µM (top of the series) unless noted; also: nearly all actives have a fitted effect of over 60% in size; as to activity change, negative = cytotoxicity: % is scaled to controls: 0 for no effect and ±100 for the full control effect
# Outline: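 Parental DNA repair-proficient DT40 cells, 300 per well, were pre-incubated ~0.5 h at 37 C/5% CO2, pin-dosed with compounds in DMSO, then incubated 40 h. Viability was read as CellTiter-Glo luminescence after 30 min at room temperature.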
# [2] = biological target: Androgen receptor (Homo sapiens) (UniProt P10275); test: qHTS assay to identify small molecule antagonists of the androgen receptor (AR) signaling pathway (AID 743035; active = well fitted inhibition curve with a large enough effect in the signal ratio in the repeat runs, not every such curve was filed as active; inconclusive = weak or mixed curves, or effect the other way; inactive = no such curve, though single readings can be large or run the other way; the % refers to the signal ratio; as to activity change, negative = inhibition: % is scaled to controls: 0 for no effect and ±100 for the full control effect); details: HEK293 AR-UAS-bla, R1881-stimulated, beta-lactamase FRET, 16 h; activity change, negative = inhibition: at 58.5 µM (top of the series) unless noted
# Outline: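 HEK293 cells stably carrying a UAS-driven beta-lactamase reporter (AR-UAS-bla GripTite) were plated for 4 h at 37C, then given compound and the agonist R1881 and incubated 16 h. Reporter activity was read by LiveBLAzer B/G FRET fluorescence after 2 h at room temperature.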
# [3] = qHTS assay to identify small molecule antagonists of the androgen receptor (AR) signaling pathway - cell viability counter screen (AID 743033; also: nearly all actives have a fitted effect of over 45% in size); details: AR-bla HEK293 viability, CellTiter-Glo luminescence, 16 h; activity change, negative = cytotoxicity: at 58.5 µM (top of the series)
# [4] = qHTS assay to identify small molecule antagonists of the thyroid receptor (TR) signaling pathway - cell viability counter screen (AID 743064); details: GH3.TRE-Luc viability, CellTiter-Fluor, 24 h; activity change, negative = cytotoxic: at 70.3 µM (top of the series) unless noted; also: nearly all actives have a fitted effect of over 50% in size
# Outline: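 GH3.TRE-Luc cells, 4 h pre-plating; cpd + T3 1 nM final; 37 °C 23.5 h; CellTiter-Fluor 30 min; fluorescence read.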
# [5] = biological target: Androgen receptor (Homo sapiens) (UniProt P10275); test: qHTS assay to identify small molecule agonists of the androgen receptor (AR) signaling pathway (AID 743036; active = well fitted activation curve with a large enough effect in the signal ratio in the repeat runs, with a control signal flat, not every such curve was filed as active; inconclusive = weak or mixed curves, or effect the other way; inactive = no such curve, though single readings can be large or run the other way; the % refers to the signal ratio; as to activation: % is scaled to controls: 0 for no effect and ±100 for the full control effect); details: HEK293 AR-UAS-bla GripTite, beta-lactamase FRET ratio, 16 h; activation: at 62.4 µM (top of the series) unless noted
# Outline: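 AR-bla HEK293 cells, 2,000/well; 4 h preincubation 37C/5% CO2; compound (DMSO) 16 h at 37C; LiveBLAzer B/G FRET substrate 2 h RT; fluorescence intensity read-out.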
# [6] = biological target: Androgen receptor (Homo sapiens) (UniProt P10275); test: qHTS assay to identify small molecule antagonists of the androgen receptor (AR) signaling pathway using the MDA cell line (AID 743042; also: nearly all actives have a fitted effect of over 55% in size; as to activity change, negative = inhibition: % is scaled to controls: 0 for no effect and ±100 for the full control effect)
# Outline: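 MDA-kb2 cells (human breast carcinoma, stably carrying an MMTV-luciferase reporter responsive to AR and GR) were plated at 3,000 cells/well and preincubated 5 hr at 37C, then given compound plus R1881 agonist for 16 h. ONE-Glo luminescence was read.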
# [7] = qHTS assay to identify small molecule antagonists of the androgen receptor (AR) signaling pathway using the MDA cell line - cell viability counter screen (AID 743041; also: nearly all actives have a fitted effect of over 45% in size); details: MDA-kb2 viability, CellTiter-Fluor, 16 h, cells co-treated with R1881 androgen agonist; viability change, negative = cytotoxic: at 70.3 µM (top of the series) unless noted
# Outline: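 MDA-kb2 AR-luc human breast carcinoma cells (MMTV-luciferase, AR/GR responsive) were treated with compounds plus R1881 agonist for 16 h at 37 °C. Viability was read as CellTiter-Fluor fluorescence in the same wells as the reporter assay.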
# [8] = biological target: Androgen receptor (Homo sapiens) (UniProt P10275); test: qHTS assay to identify small molecule agonists of the androgen receptor (AR) signaling pathway using the MDA cell line (AID 743040; also: nearly all actives have a fitted effect of over 20% in size); details: MDA-kb2 AR-luc cells, MMTV luciferase, 16 h; activity change: at 70.3 µM (top of the series), stronger effect = higher value
# Outline: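 MDA-kb2 breast carcinoma cells stably carrying an MMTV-driven luciferase reporter (AR- and GR-responsive) were seeded and held 5 h at 37C, 0% CO2, then exposed to compounds in DMSO for 16 h. Luminescence was read 30 min after ONE-Glo addition.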
# Potency is read from the fitted curve at half-maximal effect; tags tell the direction and shape of the fitted curve or compound fluorescence and quenching.
# Sequence of UniProt P10275 (P10275 whole entry, looked up): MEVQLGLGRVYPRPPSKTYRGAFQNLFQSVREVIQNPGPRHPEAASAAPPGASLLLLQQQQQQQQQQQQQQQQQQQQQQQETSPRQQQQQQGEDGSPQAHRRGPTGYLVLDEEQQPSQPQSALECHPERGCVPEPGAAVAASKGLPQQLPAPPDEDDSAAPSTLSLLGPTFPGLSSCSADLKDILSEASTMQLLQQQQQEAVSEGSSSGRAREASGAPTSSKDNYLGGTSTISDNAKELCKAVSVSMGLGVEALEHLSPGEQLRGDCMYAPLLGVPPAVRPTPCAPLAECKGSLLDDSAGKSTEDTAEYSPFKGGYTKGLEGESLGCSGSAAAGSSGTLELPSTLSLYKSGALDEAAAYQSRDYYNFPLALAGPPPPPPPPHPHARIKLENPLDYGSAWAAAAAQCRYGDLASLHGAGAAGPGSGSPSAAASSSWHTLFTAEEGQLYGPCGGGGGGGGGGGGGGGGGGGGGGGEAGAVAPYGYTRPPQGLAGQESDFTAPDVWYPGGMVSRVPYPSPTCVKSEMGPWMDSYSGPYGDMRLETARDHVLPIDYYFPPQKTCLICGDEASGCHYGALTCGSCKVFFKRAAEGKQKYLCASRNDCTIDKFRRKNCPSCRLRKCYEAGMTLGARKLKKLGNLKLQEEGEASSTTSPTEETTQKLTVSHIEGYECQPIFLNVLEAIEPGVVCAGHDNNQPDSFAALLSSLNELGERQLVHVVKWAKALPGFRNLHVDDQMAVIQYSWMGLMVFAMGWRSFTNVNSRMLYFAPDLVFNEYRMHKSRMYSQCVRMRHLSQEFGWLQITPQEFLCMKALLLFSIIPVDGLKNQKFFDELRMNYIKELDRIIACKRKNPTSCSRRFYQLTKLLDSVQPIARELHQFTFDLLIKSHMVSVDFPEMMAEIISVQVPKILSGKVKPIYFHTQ
smiles,measurement,setting,value
O=C(O)Cc1ccccc1Nc1c(Cl)cccc1Cl,Potency,[1],"inactive and inconclusive: 77 µM [cytotoxic, single point]"
same,Potency,[2],inactive and inconclusive: 38.9 µM
CC1(C)O[C@@H]2C[C@H]3[C@@H]4CCC5=CC(=O)C=C[C@]5(C)[C@@]4(F)[C@@H](O)C[C@]3(C)[C@]2(C(=O)CO)O1,Potency,[1],"inconclusive: 15.4 µM [rising, partial curve, poor fit]"
same,Potency,[3],"inconclusive: 55.3 µM [cytotoxic, single point]"
same,Potency,[4],"inconclusive: 68.6 µM [rising, partial curve, poor fit]"
CCOc1ccc2c(c1)C(C)=CC(C)(C)N2,Potency,[1],"inconclusive: 68.2 µM [cytotoxic, single point]"
same,Potency,[3],"inconclusive: 27.4 µM [cytotoxic, partial curve, poor fit] and inconclusive: 43.6 µM [cytotoxic, partial curve]"
same,Potency,[2],"inconclusive: 54.9 µM [rising, partial curve, poor fit]"
same,"activity change, negative = inhibition",[2],inconclusive: 13.2%
same,Potency,[5],"inconclusive: 54.9 µM [activator, partial curve, poor fit]"
same,activation,[5],inconclusive: 10.7% and inconclusive: 13.7%
same,Potency,[6],"inactive and inconclusive: 68.6 µM [inhibitor, single point]"
same,Potency,[4],"inconclusive: 33.5 µM [cytotoxic, single point] and inconclusive: 77 µM [cytotoxic, single point]"
CCN(CC)CCOc1ccc(Cc2ccccc2)cc1,Potency,[1],active: 0.473 µM
same,Potency,[7],"inconclusive: 33.5 µM [cytotoxic, single point]"
CSC(=O)c1cccc2nnsc12,Potency,[1],"inconclusive: 68.6 µM [cytotoxic, single point]"
same,"activity change, negative = inhibition",[2],inconclusive: -21.4%
same,Potency,[4],"inconclusive: 15.4 µM [rising, single point]"
C[C@]12CC[C@H]3C(=CCc4cc(O)ccc43)[C@@H]1CCC2=O,Potency,[1],"inconclusive: 68.6 µM [cytotoxic, single point]"
same,Potency,[3],"inconclusive: 38.9 µM [cytotoxic, partial curve]"
same,Potency,[2],"inconclusive: 6.92 µM [rising, full curve]"
same,Potency,[5],"inconclusive: 19.5 µM [activator, partial curve, poor fit]"
same,Potency,[8],active: 5.45 µM
same,Potency,[7],"inconclusive: 68.6 µM [cytotoxic, single point]"
same,Potency,[4],"inconclusive: 68.6 µM [cytotoxic, single point]"
CC(=O)CCC(=O)O,Potency,[1],"inconclusive: 2.54 µM [rising, single point]"
same,Potency,[7],inactive
Cc1ccc(C(C)(C)O)cc1,Potency,[1],"inconclusive: 27.3 µM [rising, full curve, poor fit]"
same,Potency,[7],inactive
CNC(=S)NN,Potency,[1],active: 7.7 µM
same,Potency,[3],active: 3.89 µM
same,Potency,[7],active: 48.6 µM
same,Potency,[4],inconclusive: 61.1 µM [cytotoxic]
NC(=O)OCC(COC(N)=O)c1ccccc1,Potency,[1],inactive
same,Potency,[3],"inconclusive: 151 nM [cytotoxic, full curve, poor fit] and inactive"
same,Potency,[6],inactive
CCC(C)COC(C)=O (stereo unspecified),Potency,[1],inactive
same,Potency,[7],inactive
CC1=C(Br)C(=O)C(Br)=C/C1=C(/c1ccccc1S(=O)(=O)O)c1cc(Br)c(O)c(Br)c1C,Potency,[1],active: 20.8 µM
same,Potency,[3],"inconclusive: 10.5 µM [cytotoxic, partial curve, poor fit]"
same,Potency,[7],active: 41.5 µM
